Reference: patent US20090306572A1 (Affibody, published 2009)

B1: SEQ ID NO 45 (designed binder, not shown: large carriers; small tags and cut ends)
chain: VDNKFNKEKLHAAQEIGRLPNLNVHQYYAFITSLSDDPSQSANLLAEAKKLNDAQAPK
notes: Z variant tested as fusion with ABD
B2: His6-(Z00771)4 (designed binder)
chain: MGSSHHHHHHLQVDNKFNKEAYTASLEIANLPNLNMHQYYAFIHSLLDDPSQSANLLAEAKKLNDAQAPKVDNKFNKEAYTASLEIANLPNLNMHQYYAFIHSLLDDPSQSANLLAEAKKLNDAQAPKVDNKFNKEAYTASLEIANLPNLNMHQYYAFIHSLLDDPSQSANLLAEAKKLNDAQAPKVDNKFNKEAYTASLEIANLPNLNMHQYYAFIHSLLDDPSQSANLLAEAKKLNDAQAPKVDC
notes: His6-tagged tetrameric multimer in one chain
B3: His6-(Z00752)4 (designed binder)
chain: MGSSHHHHHHLQVDNKFNKEVVGAMLEIARLPNLNRGQVNAFIWSLADDPSQSANLLAEAKKLNDAQAPKVDNKFNKEVVGAMLEIARLPNLNRGQVNAFIWSLADDPSQSANLLAEAKKLNDAQAPKVDNKFNKEVVGAMLEIARLPNLNRGQVNAFIWSLADDPSQSANLLAEAKKLNDAQAPKVDNKFNKEVVGAMLEIARLPNLNRGQVNAFIWSLADDPSQSANLLAEAKKLNDAQAPKVDC
notes: as for B2
B4: SEQ ID NO 46 (designed binder, not shown: large carriers; small tags and cut ends)
chain: VDNKFNKEVAAAVGEIGSLPNLNVGQFAAFIRSLWDDPSQSANLLAEAKKLNDAQAPK
notes: as for B1
B5: His6-(Z00734)4 (designed binder)
chain: MGSSHHHHHHLQVDNKFNKEGHQALVEIFRLPNLNVQQATAFIRSLVDDPSQSANLLAEAKKLNDAQAPKVDNKFNKEGHQALVEIFRLPNLNVQQATAFIRSLVDDPSQSANLLAEAKKLNDAQAPKVDNKFNKEGHQALVEIFRLPNLNVQQATAFIRSLVDDPSQSANLLAEAKKLNDAQAPKVDNKFNKEGHQALVEIFRLPNLNVQQATAFIRSLVDDPSQSANLLAEAKKLNDAQAPKVDC
notes: as for B2

Assays:
[1] = target: T1, biotin-conjugated, recombinant TNF-α produced in E. coli (human, UniProt P01375 77-233, biotin-conjugated (sites not given)); test: ELISA: Z-ABD fusion captured on HSA, biotinylated TNF-α 1 µg/ml, signal above threshold
T1 construct: Research Diagnostics Inc, cat no RDI-301X; also called Biotinylated TNF-α

[2] = target: T2, Tumor necrosis factor α (human, UniProt P01375 77-233); test: SPR (Biacore 2000), multimer amine-coupled to chip, TNF-α injected, 1:1 Langmuir, apparent KD
T2 construct: The source is not restated there; also called TNF-α

| Binder | binding result [1] | Kd [2] [nM] |
| --- | --- | --- |
| B1 | binds |  |
| B2 |  | ~400 |
| B3 |  | ~400 |
| B4 | binds |  |
| B5 |  | ~400 |
